According to the supplement of paper PMC8728848:
Some of the results follow.

Legend:
Experiment in all cases: glycan array binding signal (z-score within array); higher = stronger binding
Details in all cases: glycan notation: IUPAC condensed, linker removed
[1] = biological target: Glc(a1-4)Glc(a1-4)Glc(a1-4)Glc(a1-4)Glc(a1-4)Glc(a1-4)Glc(a1-4)Glc(a1-4)Glc(a1-4)Glc(a1-4)Glc(a1-4)Glc
Summary of the method: (§1)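 Negative Z-scores can be read as non-binding. The Z-score is calculated within each array and then averaged across arrays of one protein sequence at different concentrations or buffers and across linkers. Arrays, 3228 in all, were curated from the Consortium for Functional Glycomics database and kept only where the protein sequence was available.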

[2] = biological target: Glc(a1-4)Glc(a1-4)Glc(a1-4)Glc(a1-4)Glc(a1-4)Glc(a1-4)Glc(a1-4)Glc(a1-4)Glc(a1-4)Glc(a1-4)Glc(a1-4)Glc(a1-4)Glc
Summary of the method: as §1

Glc(a1-4)Glc(a1-6)Glc = biological target: Glc(a1-4)Glc(a1-6)Glc
Summary of the method: as §1

Glc(a1-6)Glc = biological target: Glc(a1-6)Glc
Summary of the method: as §1

Glc(a1-6)Glc(a1-4)Glc = biological target: Glc(a1-6)Glc(a1-4)Glc
Summary of the method: as §1

[3] = biological target: Glc(a1-6)Glc(a1-4)Glc(a1-4)Glc
Summary of the method: as §1

[4] = biological target: Glc(a1-6)Glc(a1-4)Glc(a1-4)Glc(a1-6)Glc(a1-4)Glc(a1-4)Glc
Summary of the method: as §1

Glc(a1-6)Glc(a1-6)Glc = biological target: Glc(a1-6)Glc(a1-6)Glc
Summary of the method: as §1

[5] = biological target: Glc(a1-6)Glc(a1-6)Glc(a1-6)Glc
Summary of the method: as §1

[6] = biological target: Glc(a1-6)Glc(a1-6)Glc(a1-6)Glc(a1-6)Glc
Summary of the method: as §1

[7] = biological target: Glc(a1-6)Glc(a1-6)Glc(a1-6)Glc(a1-6)Glc(a1-6)Glc
Summary of the method: as §1

[8] = biological target: Glc(a1-6)Glc(a1-6)Glc(a1-6)Glc(a1-6)Glc(a1-6)Glc(a1-6)Glc
Summary of the method: as §1

[9] = biological target: Glc(a1-6)Glc(a1-6)Glc(a1-6)Glc(a1-6)Glc(a1-6)Glc(a1-6)Glc(a1-6)Glc
Summary of the method: as §1

[10] = biological target: Glc(a1-6)Glc(a1-6)Glc(a1-6)Glc(a1-6)Glc(a1-6)Glc(a1-6)Glc(a1-6)Glc(a1-6)Glc
Summary of the method: as §1

[11] = biological target: Glc(a1-6)Glc(a1-6)Glc(a1-6)Glc(a1-6)Glc(a1-6)Glc(a1-6)Glc(a1-6)Glc(a1-6)Glc(a1-6)Glc
Summary of the method: as §1

[12] = biological target: Glc(a1-6)Glc(a1-6)Glc(a1-6)Glc(a1-6)Glc(a1-6)Glc(a1-6)Glc(a1-6)Glc(a1-6)Glc(a1-6)Glc(a1-6)Glc
Summary of the method: as §1

[13] = biological target: Glc(a1-6)Glc(a1-6)Glc(a1-6)Glc(a1-6)Glc(a1-6)Glc(a1-6)Glc(a1-6)Glc(a1-6)Glc(a1-6)Glc(a1-6)Glc(a1-6)Glc
Summary of the method: as §1

[14] = biological target: Glc(a1-6)Glc(a1-6)Glc(a1-6)Glc(a1-6)Glc(a1-6)Glc(a1-6)Glc(a1-6)Glc(a1-6)Glc(a1-6)Glc(a1-6)Glc(a1-6)Glc(a1-6)Glc
Summary of the method: as §1

Glc(b1-2)Glc = biological target: Glc(b1-2)Glc
Summary of the method: as §1

Glc(b1-2)Glc(b1-2)Glc = biological target: Glc(b1-2)Glc(b1-2)Glc
Summary of the method: as §1

[15] = biological target: Glc(b1-2)Glc(b1-2)Glc(b1-2)Glc
Summary of the method: as §1

[16] = biological target: Glc(b1-2)Glc(b1-2)Glc(b1-2)Glc(b1-2)Glc
Summary of the method: as §1

[17] = biological target: Glc(b1-2)Glc(b1-2)Glc(b1-2)Glc(b1-2)Glc(b1-2)Glc
Summary of the method: as §1

[18] = biological target: Glc(b1-2)Glc(b1-2)Glc(b1-2)Glc(b1-2)Glc(b1-2)Glc(b1-2)Glc
Summary of the method: as §1

[19] = biological target: Glc(b1-2)Glc(b1-2)Glc(b1-2)Glc(b1-2)Glc(b1-2)Glc(b1-2)Glc(b1-2)Glc
Summary of the method: as §1

[20] = biological target: Glc(b1-2)Glc(b1-2)Glc(b1-2)Glc(b1-2)Glc(b1-2)Glc(b1-2)Glc(b1-2)Glc(b1-2)Glc
Summary of the method: as §1

[21] = biological target: Glc(b1-2)Glc(b1-2)Glc(b1-2)Glc(b1-2)Glc(b1-2)Glc(b1-2)Glc(b1-2)Glc(b1-2)Glc(b1-2)Glc
Summary of the method: as §1

[22] = biological target: Glc(b1-2)Glc(b1-2)Glc(b1-2)Glc(b1-2)Glc(b1-2)Glc(b1-2)Glc(b1-2)Glc(b1-2)Glc(b1-2)Glc(b1-2)Glc
Summary of the method: as §1

[23] = biological target: Glc(b1-2)Glc(b1-2)Glc(b1-2)Glc(b1-2)Glc(b1-2)Glc(b1-2)Glc(b1-2)Glc(b1-2)Glc(b1-2)Glc(b1-2)Glc(b1-2)Glc
Summary of the method: as §1

[24] = biological target: Glc(b1-2)Glc(b1-2)Glc(b1-2)Glc(b1-2)Glc(b1-2)Glc(b1-2)Glc(b1-2)Glc(b1-2)Glc(b1-2)Glc(b1-2)Glc(b1-2)Glc(b1-2)Glc
Summary of the method: as §1

Measured: glycan array binding signal (z-score)

B1: Cel5A (Clostridium thermocellum), P16218 (protein)
chain: AVGEKMLDDFEGVLNWGSYSGEGAKVSTKIVSGKTGNGMEVSYTGTTDGYWGTVYSLPDGDWSKWLKISFDIKSVDGSANEIRFMIAEKSINGVGDGEHWVYSITPDSSWKTIEIPFSSFRRRLDYQPPGQDMSGTLDLDNIDSIHFMYANNKSGKFVVDNIKLIGATSDPTPSIKHGDLNFDNAVNSTDLLMLKRYILKSLELGTSEQEEKFKKAADLNRDNKVDSTDLTILKRYLLKAISEIPI
-0.123: [2]
-0.101: [18]
-0.112: [1]
-0.09: [9]
-0.062: [15]
-0.137: Glc(b1-2)Glc
-0.129: [10]
-0.095: [6]
-0.136: Glc(a1-6)Glc
-0.143: all other assays above
